The list shows a part of the results.
Test system: HepG2
Assay: cytotoxicity call (relative viability < 0.9)
Conditions: 10 µM

Row | Compound | cytotoxicity call
1 | O=C(C[C@@H]1CC[C@@H](NS(=O)(=O)c2ccc(F)cc2)[C@H](CO)O1)N1CCC(Cc2ccccc2)CC1 | inactive
2 | C[C@@H]1CCCCO[C@@H](CN(C)Cc2ccccc2)[C@@H](C)CN([C@H](C)CO)C(=O)c2cc(NC(=O)Nc3ccc(C(F)(F)F)cc3)ccc2O1 | active
3 | CCOC(=O)c1c(CNCCN(CC)CC)n(-c2ccccc2)c2cc(Br)c(OC)cc12 | active
4 | Cc1noc(C)c1NC(=O)Nc1ccc2c(c1)C(=O)N([C@@H](C)CO)C[C@@H](C)[C@H](CN(C)C(=O)C1CCCCC1)OCCCC[C@H](C)O2 | inactive
5 | COCCOC(=O)N1C(=O)[C@@]2(c3cc(C#Cc4ccc(OC)cc4)ccc31)[C@H](C(=O)N1CCc3cc(OC)c(OC)cc3C1)[C@H]1C(=O)O[C@H](c3ccccc3)[C@H](c3ccccc3)N1[C@@H]2c1ccc(O)cc1 | inactive
6 | CCOC(=O)N(C)C[C@@H]1OCc2cn(nn2)CCCC(=O)N([C@H](C)CO)C[C@H]1C | inactive
7 | C[C@@H]1CCCCO[C@@H](CN(C)S(=O)(=O)c2cccs2)[C@H](C)CN([C@H](C)CO)C(=O)c2cc(NC(=O)Nc3cccc4ccccc34)ccc2O1 | inactive
8 | COCCNC(=O)C[C@H]1CC[C@@H]2[C@H](COC[C@@H](O)CN2S(=O)(=O)c2ccccc2C)O1 | inactive
9 | COC(=O)[C@@H]1[C@@H](CO)[C@@H]2Cn3c(ccc(-c4ccccc4)c3=O)[C@@H]2N1S(C)(=O)=O | inactive
10 | C[C@@H]1CN([C@@H](C)CO)C(=O)c2cc(NC(=O)Cc3ccccc3)ccc2O[C@@H]1CN(C)Cc1ccc(C(=O)Nc2ccccc2N)cc1 | inactive
11 | CCOC(=O)[C@H]1C/C=C/C[C@H](C(=O)OCC)C(=O)O[C@H]2[C@@H](OC)O[C@H](COC(=O)NCCCCCC(=O)NO)[C@@H](OC(=O)Nc3ccccc3)[C@@H]2OC1=O | inactive
12 | Brc1ccc(-c2cc3n(c2)CCc2ccccc2-3)cc1 | inactive
13 | C[C@@H]1CN([C@H](C)CO)C(=O)Cc2cc(NS(C)(=O)=O)ccc2O[C@H]1CN(C)S(=O)(=O)c1cn(C)cn1 | inactive
14 | C[C@@H]1CN([C@H](C)CO)C(=O)c2cc(NC(=O)C3CCCCC3)ccc2O[C@H]1CN(C)C(=O)Nc1ccc(C(F)(F)F)cc1 | inactive
15 | Cc1ccc(S(=O)(=O)Nc2ccc3c(c2)CC(=O)N([C@@H](C)CO)C[C@H](C)[C@H](CN(C)CC2CC2)O3)cc1 | inactive
16 | CNC[C@@H]1Oc2cc(C#CCN(C)C)ccc2S(=O)(=O)N([C@@H](C)CO)C[C@@H]1C | inactive
17 | C[C@H](CO)N1C[C@H](C)[C@H](CN(C)C(=O)Nc2ccc3c(c2)OCO3)Oc2ccc(NC(=O)c3ccncc3)cc2CC1=O | inactive
18 | C[C@H](CO)N1C[C@H](C)[C@@H](CN(C)C)OCCCC[C@H](C)Oc2ccc(NS(=O)(=O)c3cn(C)cn3)cc2C1=O | inactive
19 | COc1ccc(CN(C)C[C@H]2OCCCC[C@@H](C)Oc3ccc(NC(=O)CCCCCC(=O)Nc4ccccc4N)cc3C(=O)N([C@H](C)CO)C[C@@H]2C)cc1 | inactive
20 | C[C@@H]1CN([C@H](C)CO)C(=O)c2cccc(NC(=O)c3ccc(-c4nccs4)cc3)c2O[C@@H]1CN(C)Cc1ccc(C(=O)Nc2ccccc2N)cc1 | active
21 | O=C(C[C@H]1CC[C@@H]2[C@H](COC[C@@H](O)CN2S(=O)(=O)c2ccccc2)O1)N1CCOCC1 | inactive
22 | COc1cccc(S(=O)(=O)N2C[C@H](O)COC[C@@H]3O[C@@H](CC(=O)N4CCN(c5ccccc5)CC4)CC[C@H]32)c1 | inactive
23 | CC(=O)N1CCC[C@H]1C(=O)O | inactive
24 | O=C(C[C@H]1CC[C@@H]2[C@H](COC[C@H](O)CN2C(=O)c2cccnc2)O1)NCC1CC1 | inactive
25 | C[C@@H](O)Cn1cnc2c1c(=O)n(C)c(=O)n2C | inactive
26 | C[C@H]1CN([C@@H](C)CO)C(=O)c2cccc(NC(=O)C3CCOCC3)c2O[C@@H]1CN(C)Cc1ccncc1 | inactive
27 | Cc1noc(C)c1NC(=O)Nc1ccc2c(c1)C(=O)N([C@@H](C)CO)C[C@@H](C)[C@H](CN(C)S(=O)(=O)c1ccccc1)OCCCC[C@H](C)O2 | inactive
28 | CN1CCN(CCO)C(=O)C12CCN([C@H]1CCOC1)CC2 | inactive
29 | Cc1cc(C(=O)Nc2cccc3c2O[C@@H](CN(C)S(=O)(=O)c2ccc(F)cc2)[C@@H](C)CN([C@H](C)CO)C3=O)n(C)n1 | inactive
30 | COc1ccc2c3c([nH]c2c1)[C@H](CO)N(C[C@]13CCN(CC1)C(=O)Nc1ccccc1)C(=O)Nc1ccc(cc1)F | active
